# The other results are listed elsewhere or left out. Repeats are few or missing, and single values can be far off.
# Key:
# Test in all cases: cell count relative to DMSO control; melanoma cells; higher = more viable cells
# Details in all cases: library dose: low library concentration; 72 h
# COLO792 = system: COLO792
# COLO800 = system: COLO800
# COLO829 = system: COLO829
# G361 = system: G361
# IPC-298 = system: IPC-298
# IST-MEL1 = system: IST-MEL1
# LB2518-MEL = system: LB2518-MEL
# LOXIMVI = system: LOXIMVI
# MEL-HO = system: MEL-HO
# 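Also: cell number obtained by counting DAPI-stained nuclei in high-throughput microscope images with image analysis software, screen run in 1,536-well plates.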
SMILES,cell count (COLO792) [%],cell count (COLO800) [%],cell count (COLO829) [%],cell count (G361) [%],cell count (IPC-298) [%],cell count (IST-MEL1) [%],cell count (LB2518-MEL) [%],cell count (LOXIMVI) [%],cell count (MEL-HO) [%]
"OCc1c[nH]c2ccccc12 [Indole-3-carbinol] + O=C(Nc1cccc(Cl)c1)Nc1ncc(CCNc2ncnc3ccsc23)s1 [SNS314] (first compound 0.8 µM, partner dose 0.0008 µM)",106,97.2,90.8,117,114,104,94.9,84.2,113
"Cn1c(Nc2ccc(C(F)(F)F)cc2)nc2cc(Oc3ccnc(-c4ncc(C(F)(F)F)[nH]4)c3)ccc21 + CN(NC(=O)CC(=O)NN(C)C(=S)c1ccccc1)C(=S)c1ccccc1 [STA4783] (first compound 0.08 µM, partner dose 0.006 µM)",40.6,56.4,75.5,54.5,52.7,84.4,54.7,69.5,70.5
"Nc1cccc2c1CN(C1CCC(=O)NC1=O)C2=O (stereo not drawn) [lenalidomide] + OCCn1cc(-c2cnc3nnn(Cc4ccc5ncccc5c4)c3n2)cn1 [PF04217903] (first compound 1 µM, partner dose 1 µM)",99.5,47.2,108,89.6,92.8,95,110,97.6,95.7
"Cn1c(Nc2ccc(C(F)(F)F)cc2)nc2cc(Oc3ccnc(-c4ncc(C(F)(F)F)[nH]4)c3)ccc21 + Cn1cncc1[C@@](N)(c1ccc(Cl)cc1)c1ccc2c(c1)c(-c1cccc(Cl)c1)cc(=O)n2C [tipifarnib] (first compound 0.08 µM, partner dose 0.01 µM)",34.5,59.5,83.8,57.9,56.9,81,55,62.2,77.7
"C#Cc1cccc(Nc2ncnc3cc(OCCOC)c(OCCOC)cc23)c1 [erlotinib] + O=C(O)c1ccc(-c2c[nH]c3ncc(-c4ccccc4)cc23)cc1C1CCCC1 [GSK650394] (first compound 0.8 µM, partner dose 0.16 µM)",69.8,73.1,93.8,88.9,93.5,95.3,104,104,83.9
"Clc1ccc(Nc2nnc(Cc3ccncc3)c3ccccc23)cc1 [vatalanib] + COc1ccc(-c2ccc3c(N4CCOCC4)nc(N4C[C@@H](C)O[C@@H](C)C4)nc3n2)cc1CO [KU0063794] (first compound 2 µM, partner dose 0.02 µM)",87.2,104,87.5,102,98.1,102,105,43.6,96.9
"OCc1c[nH]c2ccccc12 [Indole-3-carbinol] + O=C(O)c1ccc(-c2c[nH]c3ncc(-c4ccccc4)cc23)cc1C1CCCC1 [GSK650394] (first compound 0.8 µM, partner dose 0.16 µM)",92.6,60.3,110,85.9,95.1,99.6,98.9,73.1,103
"C#Cc1cccc(Nc2ncnc3cc(OCCOC)c(OCCOC)cc23)c1 [erlotinib] + CN(C)S(=O)(=O)c1ccc2c(c1)/C(=C/c1cc3c([nH]1)CCCC3)C(=O)N2 [SU6656] (first compound 0.8 µM, partner dose 0.4 µM)",89.9,122,104,103,93.1,101,77.7,69.6,93.2
"Nc1cccc2c1CN(C1CCC(=O)NC1=O)C2=O (stereo not drawn) [lenalidomide] + Cc1cc(N2CCOCC2)cc2[nH]c(-c3c(NC[C@@H](O)c4cccc(Cl)c4)cc[nH]c3=O)nc12 [BMS536924] (first compound 1 µM, partner dose 0.2 µM)",76.6,65.9,112,82.6,93,87.3,107,53.4,89.5
"Clc1ccc(Nc2nnc(Cc3ccncc3)c3ccccc23)cc1 [vatalanib] + O=C(CCCCCCC(=O)Nc1ccccc1)NO [vorinostat] (first compound 2 µM, partner dose 0.08 µM)",81.5,94.5,83.4,89.8,95.9,98.2,90.7,100,91.6
"COCC[n+]1c2c(n(Cc3cnccn3)c1C)C(=O)c1ccccc1C2=O + CO[C@@H]1[C@H](N(C)C(=O)c2ccccc2)C[C@H]2O[C@]1(C)n1c3ccccc3c3c4c(c5c6ccccc6n2c5c31)C(=O)NC4 [Midostaurin] (first compound 0.0004 µM, partner dose 0.08 µM)",78.6,67.6,118,93.4,79,73.4,69.8,115,85.1
"Nc1cccc2c1CN(C1CCC(=O)NC1=O)C2=O (stereo not drawn) [lenalidomide] + C=CCn1c(=O)c2cnc(Nc3ccc(N4CCN(C)CC4)cc3)nc2n1-c1cccc(C(C)(C)O)n1 [MK1775] (first compound 1 µM, partner dose 0.02 µM)",99,113,97.8,107,107,96.1,97.1,54.6,94.5

# From the supplement of paper PMC4604168 (melanoma cell lines)
